{
  "source": "PubChem BioAssay AID588342",
  "about": "(National Center for Advancing Translational Sciences (NCATS), 2011)",
  "note": "Among all 360,000 compounds or so, about 25,000 (6.9%) were called active. This list was built around the results that the source calls inconclusive (neither active nor inactive); the mix of calls is not that of the screen. Calls follow the shape of the dose curve; as a rule, active = well fitted inhibition curve with a large enough effect; inconclusive = small, poorly fitted or top-dose-only effect; inactive = flat fitted curve, though single readings scatter. A potency beside an inconclusive call is a rough fit, not a confirmed value. Potency is read from the fitted curve at half-maximal effect; tags tell the direction and shape of the fitted curve.",
  "data": [
    {"biological_target": "Luciferin 4-monooxygenase (Photinus pyralis) (UniProt P08659)", "sequence (P08659 whole entry, looked up)": "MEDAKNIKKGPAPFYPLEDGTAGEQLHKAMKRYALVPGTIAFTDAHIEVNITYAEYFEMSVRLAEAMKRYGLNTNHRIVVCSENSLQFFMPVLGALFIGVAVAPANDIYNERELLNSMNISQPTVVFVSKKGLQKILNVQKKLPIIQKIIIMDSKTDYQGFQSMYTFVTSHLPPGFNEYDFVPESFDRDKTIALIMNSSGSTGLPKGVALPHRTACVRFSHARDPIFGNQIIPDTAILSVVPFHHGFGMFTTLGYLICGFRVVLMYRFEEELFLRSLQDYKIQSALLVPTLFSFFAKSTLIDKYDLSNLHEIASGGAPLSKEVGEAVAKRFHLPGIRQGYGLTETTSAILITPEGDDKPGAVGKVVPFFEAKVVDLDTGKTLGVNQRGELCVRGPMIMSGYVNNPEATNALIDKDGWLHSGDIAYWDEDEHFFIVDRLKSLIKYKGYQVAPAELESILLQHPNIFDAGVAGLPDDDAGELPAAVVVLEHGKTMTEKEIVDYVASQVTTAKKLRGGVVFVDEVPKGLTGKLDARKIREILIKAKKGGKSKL", "experiment": "qHTS profiling assay for firefly luciferase inhibitor/activator using purifed enzyme and Km concentrations of substrates (counterscreen for miR-21 project); also: nearly all actives have a fitted effect of over 55% in size", "conditions": "purified FLuc, luminescence inhibition; series mostly up to 57.5 µM", "method_in_brief": "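Purified P. pyralis luciferase, 10 nM final, with Km-level 10 uM D-luciferin and 10 uM ATP in 50 mM Tris acetate pH 7.5, 10 mM Mg acetate, 0.01% Tween-20, 0.05% BSA; 6-point qHTS titration about 60 µM downward; luminescence read.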", "values": [
      {"smiles": "CCc1ccc2c(c1)-c1ccccc1S(=O)(=O)N2CC(=O)N1CCCCC1", "Potency": "inconclusive: 21.3 µM [inhibitor, partial curve, poor fit]"},
      {"smiles": "COc1cccc(C2=NC(C)(C)NC(c3ccccc3O)C2)c1", "note": "(configuration not stated)", "Potency": "active: 8.49 µM"},
      {"smiles": "CCCc1cc(C(=O)NCc2ccc(OC)cc2)no1", "Potency": "inconclusive: 37.9 µM [inhibitor, single point]"},
      {"smiles": "C=CCn1c(C(C)NC(=O)c2ccccc2)n[nH]c1=S", "note": "(configuration not stated)", "Potency": "inactive"},
      {"smiles": "CCOC(=O)N1CCN(C(=O)c2oc3ccc(S(=O)(=O)N4CC(C)CC(C)C4)cc3c2C)CC1", "note": "(configuration not stated)", "Potency": "inactive"},
      {"smiles": "COc1ccccc1OCCC(=O)NNC(=O)c1ccccc1F", "Potency": "inactive"},
      {"smiles": "CN(C)S(=O)(=O)N1CCCC(C(=O)c2ccc(-c3ccccc3)c(F)c2)C1", "note": "(configuration not stated)", "Potency": "inconclusive: 21.3 µM [inhibitor, single point]"},
      {"smiles": "COc1ccccc1CNC(=O)c1cc2c(s1)-c1ccccc1OC2", "Potency": "inconclusive: 13.5 µM [inhibitor, partial curve, poor fit]"},
      {"smiles": "CCC(=O)N1c2ccc(S(=O)(=O)CCC(=O)Nc3ccc(Br)c(C)c3)cc2CC1C", "note": "(configuration not stated)", "Potency": "inconclusive: 37.9 µM [inhibitor, partial curve, poor fit]"},
      {"smiles": "CCCn1c(CCCNC(=O)c2ccccc2OC)nc2ccccc21", "Potency": "inactive"},
      {"smiles": "COc1ccc(NC(=O)c2cc3ccccc3o2)cc1", "Potency": "active: 3.79 µM"},
      {"smiles": "COc1ccc(N2CCN(C(C)C(=O)N(C)Cc3ccccc3)CC2)cc1", "note": "(configuration not stated)", "Potency": "inactive"},
      {"smiles": "CCOC(=O)c1ccc(NC(=O)CSCc2ccco2)cc1", "Potency": "inconclusive: 26.9 µM [inhibitor, partial curve, poor fit]"},
      {"smiles": "Cc1cccc(C=Nc2ccc3c(c2)oc2ccccc23)c1O", "Potency": "inconclusive: 37.9 µM [inhibitor, single point]"},
      {"smiles": "COc1ccc2c(c1)CCc1c(C(=O)N3CCCC3)noc1-2", "Potency": "active: 12 µM"},
      {"smiles": "COc1ccc(C(C#N)Nc2ccccc2)cc1", "note": "(configuration not stated)", "Potency": "inactive"},
      {"smiles": "COC(=O)c1ccccc1NC(=O)Cn1c(=O)n(-c2cccc(C(F)(F)F)c2)c(=O)c2c(C)c(C)sc21", "Potency": "inactive"},
      {"smiles": "O=C(CSc1nnc(Cc2cc(=O)[nH]c(=O)[nH]2)n1-c1ccccc1)N1CCCc2ccccc21", "Potency": "inactive"},
      {"smiles": "Cc1ccc(C)c(N2CCN(C(=O)c3cc(S(=O)(=O)N4CCCCCC4)cn3C)CC2)c1", "Potency": "inactive"},
      {"smiles": "COc1ccc(NC(=S)Nc2nc(CC(=O)Nc3ccccc3OC)cs2)cc1", "Potency": "inconclusive: 21.3 µM [inhibitor, single point]"},
      {"smiles": "O=S(=O)(N/N=C/c1c(F)cccc1Cl)c1ccccc1", "Potency": "inactive"},
      {"smiles": "C=CSc1sc(Cl)c(N2CCOCC2)c1[N+](=O)[O-]", "Potency": "inconclusive: 30.1 µM [inhibitor, partial curve, poor fit]"}
    ]}
  ]
}
